# Measured values reported in PubChem BioAssay AID1347055 (National Center for Advancing Translational Sciences (NCATS), 2019).
# Out of some 54,000 compounds screened, about 120 (0.22%) were called active. The shares of active, inactive and inconclusive entries below differ from those in the screen. Calls come from the whole dose curve; as a rule, active = well fitted inhibition curve with a large enough effect; inconclusive = small, poorly fitted or top-dose-only effect, or effect the other way; inactive = flat fitted curve, though single readings scatter. No potency is given beside an inconclusive call; the fits are too rough.
# Target: Fumarate hydratase, mitochondrial (Homo sapiens) (UniProt P07954)
# UniProt P07954, sequence (P07954 whole entry, looked up): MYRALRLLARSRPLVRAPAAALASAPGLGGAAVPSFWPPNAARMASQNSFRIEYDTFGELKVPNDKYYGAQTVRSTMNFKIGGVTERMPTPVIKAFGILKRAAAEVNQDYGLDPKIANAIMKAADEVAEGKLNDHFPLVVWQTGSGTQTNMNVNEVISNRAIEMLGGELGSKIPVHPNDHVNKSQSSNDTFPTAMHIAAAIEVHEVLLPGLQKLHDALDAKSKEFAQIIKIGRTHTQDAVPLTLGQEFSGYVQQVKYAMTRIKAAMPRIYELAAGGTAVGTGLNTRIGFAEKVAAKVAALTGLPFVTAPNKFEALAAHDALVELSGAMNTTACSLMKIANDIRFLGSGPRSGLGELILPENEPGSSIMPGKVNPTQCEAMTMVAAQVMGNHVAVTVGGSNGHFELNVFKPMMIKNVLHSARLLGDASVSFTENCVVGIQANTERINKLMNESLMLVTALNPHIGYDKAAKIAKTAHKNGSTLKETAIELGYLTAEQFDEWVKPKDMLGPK
# Assay: Identification of activators of human fumarate hydratase by quantitative high-throughput screening; note: the screen sought activators but most active calls are inhibition curves; nearly all actives have a fitted effect of over 45% in size
# Settings: FH coupled MDH/diaphorase resazurin fluorescence, 15 min; activity change, negative = inhibition: at 79.9 µM (top of the series)
# % is set by controls: 0 for no effect and ±100 for the full control effect; potency is the fitted concentration of half-maximal effect; tags give direction and shape of the fitted curve.
SMILES,"activity change, negative = inhibition",Potency
CCOc1ccc(NS(=O)(=O)c2ccc3[nH]cc(C(=O)NCc4ccco4)c(=O)c3c2)cc1,inactive: -1.84%,
O=c1cc(CN2CCN(S(=O)(=O)c3ccc(Cl)cc3)CC2)nc2sc(-c3ccccc3F)nn12,inactive: 9.4%,
CCCCOC(=O)NS(=O)(=O)c1sc(CC(C)C)cc1-c1ccc(Cn2c(CC)nc3c(C)cc(C)nc32)cc1,,"inconclusive [inhibitor, partial curve]"
Cc1cccc(C)c1Nc1c(-c2ccsc2)nc2ccccn12,,"inconclusive [inhibitor, single point]"
Cc1cc(Nc2cccc(C(F)(F)F)c2)nc2ccc(NC(=O)c3ccc(N(C)C)cc3)cc12,,"inconclusive [inhibitor, partial curve, poor fit]"
CCOc1cc(C2C(C(=O)OC)=C(C)NC3=C2C(=O)c2ccccc23)ccc1O (stereo not drawn),,"inconclusive [inhibitor, partial curve]"
CCOC(=O)c1ccc(NC(=O)c2cc3cc(C)ccc3n2C)cc1,inactive: -3.23%,
Cc1ccc(-n2nc3c(=O)n(CC(=O)Nc4ccccc4F)nc(C)c3c2C)c(C)c1,,"inconclusive [inhibitor, partial curve, poor fit]"
COc1ccccc1NC(=O)c1c(NCc2sccc2C)sc2c1CCCCC2,,"inconclusive [inhibitor, partial curve, poor fit]"
CN(C(=O)c1cc(-c2ccccc2O)on1)c1ccccc1,,"inconclusive [inhibitor, partial curve, poor fit]"
CSc1ccc(CCNc2ncnc3onc(C)c23)cc1,inactive: -2.59%,
Cc1cc2nc(NCCCO)n(CC(=O)c3cc(C(C)(C)C)c(O)c(C(C)(C)C)c3)c2cc1C,,"inconclusive [inhibitor, single point]"
Cc1cccc2nc(-c3cccnc3)c(Nc3ccc(C(C)C)cc3)n12,inactive: -4.81%,
COc1ccc(Nc2c(-c3cc(Br)ccc3O)nc3ncccn23)cc1OC,,"inconclusive [inhibitor, partial curve]"
COc1ccccc1-c1noc(-c2ccc(N3CCN(c4ccccc4)CC3)c([N+](=O)[O-])c2)n1,inactive: -11.6%,
Cn1c(=O)n(C)c2cc(NS(=O)(=O)c3ccccc3)c(NCc3ccccc3)cc21,,"inconclusive [inhibitor, partial curve, poor fit]"
C[C@]12CCC(=O)C=C1CC[C@@H]1[C@@H]2[C@@H](O)C[C@@]2(C)[C@H]1CC[C@]2(O)C(=O)COC(=O)CCC(=O)O,inactive: 1.74% [at 53.3 µM],
CC1(C)NC2N(C1=O)c1ccccc1C2(O)CC(C(=O)O)n1cnc2ccccc2c1=O (stereo not drawn),inactive: 5.84% [at 53.3 µM],
